The test system of this test is NCI-H322M lung. Kind of test: NCI tumour cell line growth inhibition, 48 h.

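Where inhibition never reached the appropriate level, the endpoint shown equals the highest concentration tested. Otherwise, values were interpolated linearly from a five-concentration, 48-hour dose response in 96-well plates. GI50: concentration for 50% inhibition of growth. The concentration for full growth arrest is given as TGI.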

Consider `COc1cc(C#Cc2ccc(=O)oc2C#Cc2ccccc2)cc(OC)c1OC`, for which the GI50 is 21.3 µM and the TGI was determined as 45.1 µM.

As to `COc1ccc(-n2cnnc2-c2nsc3ccccc23)cc1`, the TGI was greater than 100 µM.

`COCCCNC(=O)C1C(=O)N(CCCOC)C(=O)/C1=N\N` (stereo unspecified) returned a TGI greater than 100 µM.

As for `[N-]=[N+]=C1N=CN=C1c1ncn[nH]1`, the TGI is greater than 100 µM.

For `CC(C(=O)c1ccccc1)C(c1ccccc1)N1CCOCC1` (stereo unspecified), the TGI was greater than 100 µM.

The molecule `O=C(c1ccccc1)N1CCN(C(=S)N(C(=O)c2ccccc2)c2ccccc2)C1=S` yielded a TGI of 27.2 µM.

In the case of `O=C1Nc2ccccc2C12CCNC2Cc1ccccc1` (stereo unspecified), the TGI was greater than 100 µM.

In turn, `O=C(O)CCCCCCC[C@H]1S[C@H]1CCCCCCO` returned a TGI greater than 100 µM.

Regarding `CC[C@]12C=CCN3CC[C@@]4(c5cc(Br)c(OC)cc5N(C)[C@H]4[C@@](O)(C(=O)NN)[C@@H]1O)[C@@H]32`, the TGI was greater than 100 µM.

Consider `Cc1ccc(-c2csc(/N=C3\C(=O)Nc4ccccc43)n2)cc1`, for which the GI50 was 2.04 µM and the TGI is 5.69 µM.

The molecule `O=C(CC(c1ccccc1)c1c(O)c2ccccc2oc1=O)c1ccccc1` (stereo unspecified) had a TGI greater than 100 µM.

For the molecule `CN(C)CCCNC(=O)c1cc(NC(=O)c2cc(NC(=O)CCc3c[nH]c4ccccc34)cn2C)cn1C`, the GI50 was greater than 100 µM and the TGI is greater than 100 µM.

Regarding `O=c1[nH]c(=O)n(C2OC(COP(=O)(O)OP(=O)(O)OC3OC(CO)C(O)C(O)C3O)C(O)C2O)cc1F` (stereo unspecified), the TGI was greater than 100 µM.

`FC(F)(F)c1nc2nc(Cl)c(Cl)nc2n1CCCN1CCOCC1` returned a TGI of 70.4 µM.

In the case of `COC(=O)c1c2c(c[n+]([O-])c1C)C(=O)C=CC2=O`, the GI50 was 10.1 µM and the TGI worked out at 21.7 µM.

`COC(=O)C(Cc1c(C2Nc3ccccc3C2CC(NC(=O)CNC(C)=O)C(=O)OC)[nH]c2ccccc12)NC(=O)CNC(C)=O` (stereo unspecified) displayed a TGI greater than 100 µM.

In turn, `COc1ccc(OC)c(/C(C)=N/NC(N)=S)c1` yielded a TGI greater than 100 µM.

In the case of `O=C1c2ccc(O)cc2C(=O)c2ccc(O)cc21`, the TGI was greater than 100 µM.

Turning to `Cc1ccc(N=N/C(=N\NC(=O)c2ccc(C)cc2)c2ccc(N(CCC#N)CCC#N)cc2C)cc1`, the TGI is greater than 100 µM.

`Nc1ncnc2c1nnn2C1C=CC(COS(N)(=O)=O)C1` (stereo unspecified) registered a TGI of 85.5 µM.

Turning to `CC(=O)[C@@]1(C)CC2(CCN(C)CC2)OC1C` (stereo partly specified), the TGI was greater than 100 µM.

With `CCCN(CCCC(NC(C)=O)C(=O)NCc1ccccc1)C(=O)N(CCCl)N=O` (stereo unspecified), the TGI is 56.2 µM.

In the case of `O=S(=O)(O)c1cc(O)c2c(N=Cc3ccccc3O)cc(S(=O)(=O)O)cc2c1`, the TGI is greater than 100 µM.

The molecule `CN(C)CC(C)(C)/C(=N\Nc1ccccc1)c1ccccc1` showed a TGI greater than 100 µM.

Take `CCSc1sc(=Nc2ccc(N=c3sc(C)c(SC)s3)cc2)sc1-c1ccc(C)cc1`: the TGI is greater than 100 µM.

Take `Clc1ccc(SC(/C=C/NNC2=NC(c3ccccc3)C(c3ccccc3)=NN2)c2ccccc2)cc1` (stereo unspecified): the TGI is greater than 100 µM.

Consider `Cc1nc(SCC(=O)Nc2nc(-c3ccc(Cl)cc3)cs2)n(Nc2ccccc2)c1C`, for which the GI50 was 4.17 µM and the TGI stood at 22.9 µM.

The molecule `COc1ccc(S(=O)(=O)Nc2ccccc2C(=O)O)cc1` registered a TGI greater than 100 µM.

In turn, `O=C(/N=C/c1c(O)c2ccccc2oc1=O)Nc1ccccc1` had a TGI greater than 100 µM.

Molecule `Cc1[nH]c2ccccc2c1C(=O)CC1(O)C(=O)Nc2ccccc21` (stereo unspecified) came in with a TGI greater than 100 µM.

Take `COc1cc(OC)cc(N(CCNC(C)C)c2ccc3ncc(-c4cnn(C)c4)nc3c2)c1`: the GI50 was 4.62 µM and the TGI is 17.1 µM.

Take `CCCNNC(=O)/C=C/c1ccc(CNCCc2c(C)[nH]c3ccccc23)cc1`: the GI50 was 0.0508 µM and the TGI stood at 0.329 µM.

Molecule `CCOC(=O)c1cc(-c2cc(OC)c(OC)c([N+](=O)[O-])c2)c([N+](=O)[O-])n1C` displayed a TGI greater than 10 µM.

In the case of `CC(C)=CC(=O)C/C(=N\NC(N)=S)C(=O)Nc1ccc(Cl)cc1`, the TGI is greater than 100 µM.

With `COC(=O)/C(=C\Nc1cccc(C)n1)S(=O)(=O)c1ccc(C)cc1`, the TGI was greater than 100 µM.

In turn, `COc1ccc2c(CCN)c(C(=O)O)[nH]c2c1` displayed a TGI greater than 100 µM.

For the molecule `N/C(=N\S(=O)(=O)c1ccc(S(=O)(=O)c2ccccc2)s1)Nc1ccc(Cl)cc1`, the TGI was found to be 52.9 µM.

Turning to `CCCSc1ccc2[nH]c(N3C(=O)/C(=C/c4ccco4)N=C3c3ccccc3)cc2c1`, the TGI is greater than 50 µM.

In the case of `Cc1ccc(S(=O)(=O)N/N=C(\c2nc3ccc(Cl)cc3[nH]c2=O)C(O)c2cccc([N+](=O)[O-])c2)cc1` (stereo unspecified), the TGI was greater than 100 µM.

`COC(=O)[C@]1(c2cc3ccccc3n2S(=O)(=O)c2ccccc2)CC2CN(C(C)=O)C1CC2=O` (stereo partly specified) returned a TGI of 13 µM.

Molecule `CC(NC(=O)C(C)NC(=O)C(N)CCP(C)(=O)O)C(=O)O` (stereo unspecified) registered a TGI greater than 100 µM.

Take `[Cl-].[O-]/N=C(\c1ccccc1)c1ccccn1.[O-]/N=C(\c1ccccc1)c1ccccn1.[O-]/N=C(\c1ccccc1)c1ccccn1.[Sm+3]`: the GI50 was 31.6 µM and the TGI was greater than 100 µM.

On to `CN[C@H]1C=C[C@@H]2/C=C(C)/C=C/[C@@H](C)[C@H]([C@H](C)[C@H](O)[C@@H](C)NC(C)=O)OC(=O)/C=C/C=C(C)\C=C\[C@]2(C)C1`, for which the GI50 was 0.196 µM and the TGI was greater than 49 µM.

In turn, `CCCCC(=O)NS(=NC(=O)c1ccccc1)C(Cl)(Cl)Cl` (stereo unspecified) yielded a TGI greater than 100 µM.

Consider `Cc1ccc(C)c2c1C(O)(C#Cc1ccccc1)c1ccccc1C2(O)C#Cc1ccccc1` (stereo unspecified), for which the GI50 is 4.69 µM and the TGI is greater than 100 µM.

For the molecule `CC(=O)N=C1N(/C=C2\C(=O)Oc3ccccc3C2=O)C(=O)/C(=C/c2ccc(OC(C)=O)cc2)N1C`, the TGI was greater than 100 µM.

Turning to `O=C(Nc1cccc(-n2ccc3c(NC(=O)c4ccccc4)nccc32)c1)Nc1cc(C(F)(F)F)cc(C(F)(F)F)c1`, the GI50 is 16.8 µM and the TGI was greater than 50 µM.

`N#CC1=C(N)n2c(s/c(=C\c3ccc(Cl)cc3)c2=O)=C(c2nc3ccccc3[nH]2)C1c1ccc(Cl)cc1` (stereo unspecified): the TGI came out at 3.57 µM.

`S=C(NC1=NCC(CN2CCN(c3ccccc3)CC2)O1)Nc1ccccc1` (stereo unspecified) showed a TGI greater than 100 µM.

Molecule `CC1(C)N=C(C(N)=O)c2ncn(N)c2N1` displayed a TGI greater than 100 µM.

On to `NC(CCCC(N)P(=O)(O)c1ccccc1)P(=O)(O)c1ccccc1` (stereo unspecified), for which the TGI was greater than 261 µM.

`Cc1cc2c(ccc3c(C)cc(=O)oc32)o1` registered a TGI greater than 100 µM.

On to `COC(=O)CCc1c[nH]c2ccc(N(CCCl)CCCl)cc12`, for which the GI50 is 21.2 µM and the TGI was greater than 68.2 µM.

On to `[Cl][Hg][Cl]`, for which the GI50 is 16.1 µM and the TGI was 29.7 µM.

For `O=c1c(Oc2ccc(F)cc2F)cc2cnc(NC3CCOCC3)nc2n1CCCO`, the GI50 is greater than 25 µM and the TGI was greater than 25 µM.

Regarding `CCc1cccc(C)c1NC(=O)c1sc2nc3c(cc2c1N)CCCCC3`, the GI50 was 5.69 µM and the TGI is greater than 100 µM.

Regarding `CCCCCC(=O)C(C)C1=Nc2nnc(CCCCCCCc3nnc4n3C(=O)C(C(C)C(=O)CCCCC)=N4)n2C1=O` (stereo unspecified), the TGI was greater than 100 µM.

In turn, `COc1ccc2c(CN3CCCCC3CO)cc3cc(OC)c(OC)cc3c2c1` (stereo unspecified) had a TGI of 17.5 µM.

As to `N#CCc1n[nH]c(Cc2ccccc2)n1`, the TGI is greater than 100 µM.

`COC(=O)c1c(O)ccc2c1c1c(n2Cc2ccccc2Cl)C(=O)c2ccccc2C1=O` had a TGI of 30.5 µM.

On to `Cc1nc(Nc2ccc(Cl)cc2)sc1C(=O)NNc1ccc([N+](=O)[O-])cc1[N+](=O)[O-]`, for which the TGI is 39.1 µM.
